Assay results as given in the supplement of paper PMC9446081.
Hit rate of the full screen: of about 39,000 compounds, about 220 (0.56%) showed activity. The list shows a part of the results.

Tested on: Escherichia coli K-12 BW25113
Assay: relative growth (OD600 normalised to plate interquartile mean) (fraction); higher = less growth inhibition, active = 0.2 or less
Settings: 50 µM; LB; incubation time: overnight (16-24 h)
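Further: static incubation at 37 °C against the wild-type strain, values averaged over two biological replicates.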

SMILES	relative growth
O.O=c1ccc2cc(OC3OC(CO)C(O)C(O)C3O)c(O)cc2o1 (stereo not given)	inactive: 1.07
NNc1ccn([C@@H]2O[C@H](CO)[C@@H](O)[C@H]2O)c(=O)n1	inactive: 0.684
O=C1[O][Pt]2([NH][C@@H]3CCCC[C@H]3[NH]2)[O]C1=O	inactive: 0.96
CC1=C(O)C(=O)C=C2C1=CC=C1C2(C)CCC2(C)C3CC(C)(C(=O)O)CCC3(C)CCC12C (stereo not given)	inactive: 1.02
O=c1ccc(=O)[nH][nH]1	inactive: 0.994
C[C@@H]1CN([C@@H](C)CO)C(=O)c2c(c3ccccc3n2C)-c2ccccc2CO[C@@H]1CN(C)C(=O)Oc1ccccc1	inactive: 0.989
CC(=O)N[C@@H]1CCSC1=O	inactive: 1.01
O=C1O[C@H]2CN[C@@H]1C2	inactive: 0.987
C[N+](C)(C)CCCl	inactive: 1
CC(=O)OC1CC(OC2C(O)CC(OC3C(O)CC(OC4CCC5(C)C(CCC6C5CC(O)C5(C)C(C7=CC(=O)OC7)CCC65O)C4)OC3C)OC2C)OC(C)C1OC1OC(CO)C(O)C(O)C1O (stereo not given)	inactive: 0.995
Cc1nn[nH]n1	inactive: 0.979
CC[C@@H](CN)c1ccccc1	inactive: 0.896
O=C([O-])CCCO.[Na+]	inactive: 1.11
C[C@@]1(C(=O)O)[C@H]2CC[C@@H](O2)[C@@]1(C)C(=O)O	inactive: 0.979
O=C1[O][SbH]23[O]C(=O)C([O]2)C2[O][SbH]4([O]C(=O)C([O]4)C1[O]3)[O]C2=O	inactive: 0.368
CCCC12CNCC(C)(CNC1)C2=O	inactive: 0.998
CCCCC1C(=O)NC(=S)NC1=O	inactive: 1.02
C[C@H]1C[C@H]2CNCC[C@@H]2O1	inactive: 1.03
O=S1(=O)COC2(CNC2)CN1	inactive: 0.995
ClC=C(Cl)Cl	inactive: 1.13
NCC1(c2c(F)cc(F)cc2F)CC1	inactive: 0.966
Clc1nc(N2CCNCC2)c2[nH]cnc2n1	inactive: 0.993
Cc1ccc(OC(=O)N(C)C[C@H]2OCc3ccccc3-c3c(n(C)c4ccccc34)C(=O)N([C@H](C)CO)C[C@H]2C)cc1	inactive: 0.996
C[C@H]1C(=O)O[C@@H]2CCN3CC=C(COC(=O)[C@](C)(O)[C@]1(C)O)[C@H]23	inactive: 1
C[C@@H](N)Cc1cccc(O)c1	inactive: 0.998
C1C[C@@H]2C[C@@H]2N1	inactive: 1.05
CN1CC[C@]2(CCCO2)C1	inactive: 0.989
CCn1cc(C(=O)[O-])c(=O)c2cc3c(cc21)OCO3.[K+]	active: 0.0482
CCC(C)(C)O	inactive: 1.03
CN(C)C(=S)SSC(=S)N(C)C	inactive: 0.518
